Here are results for 59 molecules from article PMC4336329 (PLoS ONE, 2015).

Hit rate of the full screen: of about 310,000 compounds, about 2,200 (0.71%) showed an effect of 50% or more. The effect is printed as a negative number. The list shows a part of the results.

The target of this test is human ether-à-go-go-related gene (hERG) potassium channel (human, UniProt Q12809). Briefly: primary screen, population patch clamp on CHO cells stably expressing hERG.
human ether-à-go-go-related gene (hERG) potassium channel, sequence (Q12809 whole entry, looked up): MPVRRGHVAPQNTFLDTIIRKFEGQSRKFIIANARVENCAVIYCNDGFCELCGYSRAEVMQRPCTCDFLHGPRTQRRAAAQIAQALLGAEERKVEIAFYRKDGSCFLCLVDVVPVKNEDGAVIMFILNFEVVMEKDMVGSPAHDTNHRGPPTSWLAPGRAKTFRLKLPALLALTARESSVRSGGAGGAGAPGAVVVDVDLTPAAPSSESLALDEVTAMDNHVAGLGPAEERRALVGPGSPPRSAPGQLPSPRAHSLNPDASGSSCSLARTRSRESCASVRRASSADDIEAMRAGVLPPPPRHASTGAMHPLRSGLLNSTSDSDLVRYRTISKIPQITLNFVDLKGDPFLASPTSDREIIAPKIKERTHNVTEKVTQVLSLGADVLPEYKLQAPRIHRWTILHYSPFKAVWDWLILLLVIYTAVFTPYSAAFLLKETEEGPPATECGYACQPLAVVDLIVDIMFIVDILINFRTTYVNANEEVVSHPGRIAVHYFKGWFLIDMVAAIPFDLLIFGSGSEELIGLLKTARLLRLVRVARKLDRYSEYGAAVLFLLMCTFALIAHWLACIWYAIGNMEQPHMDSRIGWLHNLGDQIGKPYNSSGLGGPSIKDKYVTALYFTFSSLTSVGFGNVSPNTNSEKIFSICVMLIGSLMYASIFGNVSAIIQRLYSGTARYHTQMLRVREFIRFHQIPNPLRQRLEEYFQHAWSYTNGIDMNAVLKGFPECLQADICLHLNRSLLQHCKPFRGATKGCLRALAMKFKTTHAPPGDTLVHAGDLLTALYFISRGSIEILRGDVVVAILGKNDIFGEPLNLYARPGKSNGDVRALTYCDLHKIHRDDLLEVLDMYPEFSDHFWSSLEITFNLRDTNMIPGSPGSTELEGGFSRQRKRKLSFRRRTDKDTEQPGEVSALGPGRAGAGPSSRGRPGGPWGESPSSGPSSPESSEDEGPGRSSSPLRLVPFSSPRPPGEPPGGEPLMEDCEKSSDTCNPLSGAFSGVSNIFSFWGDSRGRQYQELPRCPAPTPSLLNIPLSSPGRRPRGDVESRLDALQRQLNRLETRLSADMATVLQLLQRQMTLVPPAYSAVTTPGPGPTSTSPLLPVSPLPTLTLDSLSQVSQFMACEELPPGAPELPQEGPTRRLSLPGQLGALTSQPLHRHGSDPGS
`COc1ccc(CCNC(=O)COC(=O)C2CC2)cc1`: the “hERG current change (%, negative = inhibition) at 1uM” value came to 6.96%.
Next, `CCCCOc1nc2ccccc2c(=O)n1-c1ccccc1`: 2.24%; `CN(Cc1ccccc1Cl)C(=O)C1CCC(=O)N(CCc2cccc(F)c2)C1` (centres unmarked): 0.761%; `Cc1nc2c(C)cccn2c(=O)c1NC(=O)c1ccc(Br)o1`: 12.7%.
Next, `Cc1cc(NC(=O)CCC(=O)N(CC(=O)NCC2CCCO2)c2ccc(Cl)c(Cl)c2)no1` (centres unmarked): 9.22%; `CC(=O)N[C@H]1[C@H](OC2CCCCC2)O[C@H](COC(C)=O)[C@@H](OC(C)=O)[C@@H]1OC(C)=O`: 10.4%.
Next, `O=C1[C@@H]2Cc3c([nH]c4ccccc34)C(c3ccc(Cl)cc3)N2C(=O)CN1CCO` (some centres unmarked): 19%; `CCOC(=O)C(=NC1CCS(=O)(=O)C1)NNc1ccccc1Cl` (centres unmarked): 4%.
On to `COc1ccc(NC(=S)NC(=O)c2ccc(Br)o2)cc1`, for which the “hERG current change (%, negative = inhibition) at 1uM” value amounted to 14.9%.
Turning to `COC(=O)c1ccc(Cc2ccc(C(=O)OC)o2)o1`, the “hERG current change (%, negative = inhibition) at 1uM” value stood at 15.8%.
Take `O=c1sc(N2CCN(c3ccccc3F)CC2)nc2ccsc12`: the “hERG current change (%, negative = inhibition) at 1uM” value is 5.34%.
Next, `Cc1cccc(N2C(=O)CC(n3ccnc3)C2=O)c1C` (centres unmarked): 13.7%; `COCCCNC(=O)c1ccccc1NS(=O)(=O)c1ccc(C)cc1`: 3.86%; `COc1ccccc1N1CCN(C(=O)CCc2nnc3ccc(N4CCCC4)nn23)CC1`: -1.17%.
The figure for `C=CCn1c(-c2csc3c2CCC(C)C3)n[nH]c1=S` (centres unmarked) is 7.01%.
With `O=C(N/N=C/c1ccncc1)c1cc2ccccc2o1`, the “hERG current change (%, negative = inhibition) at 1uM” value came to 6.93%.
Next, `CC1(C)C(C=C(Cl)Cl)C1C(=O)N(Cc1ccccc1Cl)C1CCS(=O)(=O)C1` (centres unmarked): 12.1%; `CSc1nnc(Nc2ccccc2C)s1`: 15.7%.
In the case of `CCCC(C)C(=O)Nc1cc(S(=O)(=O)N2CCCCC2)ccc1N1CCOCC1` (centres unmarked), the “hERG current change (%, negative = inhibition) at 1uM” value was determined as 3.44%.
The figure for `O=C(NCc1cccs1)c1nc(-c2cccs2)no1` is 7.99%; for `O=[N+]([O-])c1cc(CN2CCN(c3ccccc3)CC2)c(O)c2ncccc12` it is 12.1%.
For `O=C(O)CCNC1C=CS(=O)(=O)C1` (centres unmarked), the “hERG current change (%, negative = inhibition) at 1uM” value came out at 10.2%.
As to `COc1ccccc1/C=N/OCC(=O)NCc1ccc2c(c1)OCO2`, the “hERG current change (%, negative = inhibition) at 1uM” value was determined as 5.44%.
As for `CCOc1ncccc1C(=O)OCC(=O)Nc1ccc(C)c(S(=O)(=O)N(C)C)c1`, the “hERG current change (%, negative = inhibition) at 1uM” value is given as -10.7%.
Turning to `CCOc1ccc(CN2CCN(C3CCSCC3)CC2CCO)cc1` (centres unmarked), the “hERG current change (%, negative = inhibition) at 1uM” value is reported as -76.2%.
Consider `CCn1c(C)c(C)c2cc(C(=O)N3CCCC3)ccc21`, for which the “hERG current change (%, negative = inhibition) at 1uM” value is on record as 1.63%.
The figure for `COc1ccc(C(=O)OC(C)C(=O)NCC2CCCCC2)cc1S(=O)(=O)N1CCOCC1` (centres unmarked) is -7.96%; for `O=C(N/N=C/c1cc2ccccc2nc1Cl)/C(=C/c1cccs1)NC(=O)c1ccccc1` it is 2.16%.
Next, `O=C(O)c1ccccc1/C=N/NC(=O)C1CCCC1`: 16.4%; `COc1ccc(C)cc1NC(=O)COC(=O)c1ccc2c(c1)OCO2`: 2.9%; `Cc1ccc(C)c(N(C)C(=O)CCS(=O)(=O)c2cccc3nonc23)c1`: 16.3%.
The figure for `CCCCNC(=O)N1CCN(C/C=C/c2ccccc2)CC1` is -5.72%.
Consider `OC(COc1ccccc1)CN1CCN(c2ncccn2)CC1` (centres unmarked), for which the “hERG current change (%, negative = inhibition) at 1uM” value is on record as -3.99%.
The figure for `CCN(CC)S(=O)(=O)c1ccc(OC)nc1` is -5.33%; for `Cc1c2cccn2cc[n+]1C.[I-]` it is 3.78%; for `CC(Sc1nnc2ccccn12)C(=O)Nc1ccc2c(c1)OCO2` (centres unmarked) it is 5.15%.
With `O=C(NCCN1CCOCC1)c1ccc(CS(=O)(=O)c2c(Cl)cccc2Cl)o1`, the “hERG current change (%, negative = inhibition) at 1uM” value was 5.1%.
Next, `C=CCN1C(=O)NC(=O)/C(=C/c2ccc(OCC(=O)Nc3ccc(C)cc3)cc2)C1=O`: 15.3%.
The figure for `COc1ccc(C)cc1NC(=O)CC1COc2ccccc2O1` (centres unmarked) is 3.47%.
The figure for `Cc1ccc(S(=O)(=O)Nc2c(C)[nH]c(=O)[nH]c2=O)cc1C` is 12.2%; for `O=C(Nc1ncccc1O)c1c(O)c2ccccc2[nH]c1=O` it is 6.38%; for `COc1cc(C(C)=O)ccc1OCC(=O)Nc1ccc(C)c(S(=O)(=O)N2CCCCCC2)c1` it is 8.06%.
With `CCN(C(=O)COC(=O)c1cc(NS(=O)(=O)c2ccc(Cl)c([N+](=O)[O-])c2)ccc1O)C1CCCCC1`, the “hERG current change (%, negative = inhibition) at 1uM” value is on record as 3.94%.
As to `CCOC(=O)C1CCN(c2cc3c(cc2NC(=O)c2ccc(F)cc2)n(C)c(=O)n3C)CC1`, the “hERG current change (%, negative = inhibition) at 1uM” value was 19.6%.
Next, `O=c1oc2ccccc2cc1-c1ccc(O)cc1O`: 12.4%; `COc1ccc(Nc2cc(C)nc3c(C)cccc23)cc1OC`: 2.51%.
Consider `CC(C)OC(=O)C1C2C=CC3(CN(CC4CCCO4)C(=O)C13)O2` (centres unmarked), for which the “hERG current change (%, negative = inhibition) at 1uM” value is reported as 9.21%.
The figure for `CNC(=O)NC(=O)C(C)OC(=O)CCCc1nc2ccccc2s1` (centres unmarked) is 15.6%.
`Cc1ccc(C=Nc2ccccc2C(=O)Nc2ccccc2)cc1`: the “hERG current change (%, negative = inhibition) at 1uM” value was 10.3%.
The figure for `CCc1ccc(OCC(=O)NNC(=O)Cc2cccs2)cc1` is 5.25%.
The figure for `Cc1ccc(C(=O)O/N=C/c2ccc3c(c2)OCO3)cc1` is 9.59%; for `CC(C)n1cnc2cc(NCc3ccccn3)ccc21` it is 5.91%.
The figure for `CC(NC(=O)c1cc2sccc2n1C)c1ccc2c(c1)OCCO2` (centres unmarked) is -0.306%; for `O=C(Nc1ccccn1)NC1CCCCC1` it is 7.91%.
Take `O=C(NCc1cccnc1)NC1(C(F)(F)F)Oc2ccc(Cl)cc2O1` (centres unmarked): the “hERG current change (%, negative = inhibition) at 1uM” value stood at 17.6%.
Next, `Cc1occc1C(=O)NNC(=O)Nc1ccc(F)cc1F`: 18.7%; `CCN1C(=O)/C(=C\N2CCN(c3ccc(F)cc3)CC2)SC1=S`: 9.06%; `COc1ccc2[nH]c(C(=O)N3CCc4ccccc4C3)c(C)c2c1`: 10.4%.
The figure for `O=C(CC1Nc2ccccc2NC1=O)Nc1ccccc1` (centres unmarked) is -1.16%.
